The campaign covered roughly 310,000 compounds. About 14,000 (4.5%) showed an effect of 50% or more. Effects have a minus sign here. The list shows a part of the results.
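Further: peak tail current of the secondary pulse compared with the same well before compound.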

For this test, the target named is human ether-à-go-go-related gene (hERG) potassium channel (human, UniProt Q12809). Kind of test: primary screen, population patch clamp on CHO cells stably expressing hERG.
Chain of human ether-à-go-go-related gene (hERG) potassium channel (Q12809 whole entry, looked up): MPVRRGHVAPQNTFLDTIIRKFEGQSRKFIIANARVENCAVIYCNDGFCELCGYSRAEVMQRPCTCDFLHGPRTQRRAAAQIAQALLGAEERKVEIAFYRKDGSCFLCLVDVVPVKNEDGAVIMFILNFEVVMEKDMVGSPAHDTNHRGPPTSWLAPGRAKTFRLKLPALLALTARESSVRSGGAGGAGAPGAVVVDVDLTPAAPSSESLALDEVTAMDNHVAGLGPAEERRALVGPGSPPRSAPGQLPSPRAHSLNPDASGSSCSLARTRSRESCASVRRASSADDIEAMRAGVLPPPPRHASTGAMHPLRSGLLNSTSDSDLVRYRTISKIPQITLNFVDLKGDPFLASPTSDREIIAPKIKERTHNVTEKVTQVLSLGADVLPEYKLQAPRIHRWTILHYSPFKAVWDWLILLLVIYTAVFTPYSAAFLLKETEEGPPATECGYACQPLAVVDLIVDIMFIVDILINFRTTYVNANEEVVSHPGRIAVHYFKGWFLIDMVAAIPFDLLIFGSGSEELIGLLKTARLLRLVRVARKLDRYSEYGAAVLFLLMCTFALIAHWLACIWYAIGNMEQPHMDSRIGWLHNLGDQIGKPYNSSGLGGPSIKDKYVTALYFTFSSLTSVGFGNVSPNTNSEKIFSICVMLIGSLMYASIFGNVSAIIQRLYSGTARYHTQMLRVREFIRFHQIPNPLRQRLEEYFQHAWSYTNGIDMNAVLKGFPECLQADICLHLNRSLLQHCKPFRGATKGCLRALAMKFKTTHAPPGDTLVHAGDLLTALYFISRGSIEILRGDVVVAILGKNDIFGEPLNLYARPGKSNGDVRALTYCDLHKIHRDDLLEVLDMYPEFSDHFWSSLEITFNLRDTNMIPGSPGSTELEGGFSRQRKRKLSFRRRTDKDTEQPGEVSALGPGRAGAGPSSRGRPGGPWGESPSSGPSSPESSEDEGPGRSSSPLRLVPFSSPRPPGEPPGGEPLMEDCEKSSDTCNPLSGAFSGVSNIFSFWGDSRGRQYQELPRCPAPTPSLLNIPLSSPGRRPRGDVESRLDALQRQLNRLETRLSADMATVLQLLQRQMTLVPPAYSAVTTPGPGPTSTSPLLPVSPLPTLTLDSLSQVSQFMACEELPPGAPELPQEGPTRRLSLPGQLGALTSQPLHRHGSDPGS
With `COC(=O)CSc1nc2cc(C)ccc2cc1C#N`, the “hERG current change (%, negative = inhibition) at 10uM” value came to 19.1%.
Regarding `Cc1ccc(C)c(NC(=O)CCC(=O)N/N=C/c2cc([N+](=O)[O-])ccc2O)c1`, the “hERG current change (%, negative = inhibition) at 10uM” value is given as -26.2%.
In the case of `O=C(O)c1ccc(-n2cccn2)nc1`, the “hERG current change (%, negative = inhibition) at 10uM” value turned out to be 14.2%.
For the molecule `Cc1ccc2cc3cc(C(=O)NCCN4CCOCC4)oc3nc2c1`, the “hERG current change (%, negative = inhibition) at 10uM” value is listed as -14.5%.
As to `CC(Sc1ncnc2sc(-c3ccccc3)cc12)C(N)=O` (centres unmarked), the “hERG current change (%, negative = inhibition) at 10uM” value turned out to be 11.7%.
Turning to `COc1cccc(C(=O)Nc2sc3c(c2C(=O)O)CCCC3)c1`, the “hERG current change (%, negative = inhibition) at 10uM” value stood at 32%.
For `Cc1cc(C)cc(-n2c(C)cc(/C=N/NC(=O)c3cccc([N+](=O)[O-])c3C)c2C)c1`, the “hERG current change (%, negative = inhibition) at 10uM” value was 15.8%.
As for `COc1ccc(-n2c(N)c(C(=O)NCc3ccco3)c3nc4ccccc4nc32)c(OC)c1`, the figure is 0.913%; as for `C/C(=N\Nc1ccc(C#N)cc1[N+](=O)[O-])c1ccc(C)o1`, -7.4%.
`Cc1ccc(NC(=O)N2CCCc3ccccc32)cc1C`: the “hERG current change (%, negative = inhibition) at 10uM” value was -29.2%.
Consider `COc1ccc(S(=O)(=O)N2CCOCC2)cc1NC(=O)C1CCCN1C(=O)c1cccs1` (centres unmarked), for which the “hERG current change (%, negative = inhibition) at 10uM” value is given as -3.94%.
For the molecule `CCCC(C)C(=O)Nc1cccc(NC(C)=O)c1` (centres unmarked), the “hERG current change (%, negative = inhibition) at 10uM” value is on record as 5.4%.
For `CCOC(=O)C1C(=O)NC(SCC(=O)OC)=C(C#N)C1c1ccccc1OCC` (centres unmarked) the value was -15.8%; for `O=C(CCc1ccccc1)N=C1SC2CS(=O)(=O)CC2N1c1ccccc1` (centres unmarked), 5.51%; for `COc1ccc(OCCn2c(N)nc3ccccc32)cc1`, -67.4%.
In the case of `O=C(CSc1nnc(NC(=O)C2CC(=O)N(c3ccc(F)cc3)C2)s1)NCc1ccco1` (centres unmarked), the “hERG current change (%, negative = inhibition) at 10uM” value turned out to be 6.11%.
In the case of `CN(C)S(=O)(=O)c1cccc(NC(=O)c2ccncc2)c1`, the “hERG current change (%, negative = inhibition) at 10uM” value is recorded as -17.6%.
Turning to `CCOC(=O)c1c(CSc2cccs2)n(C)c2cc(Br)c(O)c(CN(C)C)c12.Cl`, the “hERG current change (%, negative = inhibition) at 10uM” value is recorded as -68.3%.
As for `O=S(=O)(c1ccc(Cl)nc1)N1CCCCC1`, the figure is -1.17%.
For `COCCNc1nc(NCc2ccccc2)c2cnn(C)c2n1` the value was 10.1%.
In the case of `CCOCCn1c(SCC(=O)OCc2ccccc2)nc2c1c(=O)[nH]c(=O)n2C`, the “hERG current change (%, negative = inhibition) at 10uM” value is -23.6%.
For `COc1ccc(C2=NS(=O)(=O)N(C)C(C(=O)N3CCOCC3)=C2)cc1`, the “hERG current change (%, negative = inhibition) at 10uM” value is given as -13%.
As for `CCOc1ccc(CSC2=NCCN2)cc1[N+](=O)[O-].Cl`, the figure is -83.5%; as for `Nc1c(C(=O)NC2CCCC2)sc2nc(-c3cccs3)ccc12`, 16.3%; as for `CCN(C(=O)CCN1C(=O)c2ccccc2S1(=O)=O)c1ccccc1`, -16.6%.
With `Cc1nc(Cl)sc1C(=O)NC(C)c1ccc(Cl)cc1` (centres unmarked), the “hERG current change (%, negative = inhibition) at 10uM” value is given as -3.56%.
Turning to `NS(=O)(=O)c1ccc(N2CCCC2=O)c([N+](=O)[O-])c1`, the “hERG current change (%, negative = inhibition) at 10uM” value worked out at 17.4%.
Regarding `COc1cc(/C=C2\C(=O)N(c3ccccc3)N=C2C)ccc1Oc1ccc([N+](=O)[O-])cc1[N+](=O)[O-]`, the “hERG current change (%, negative = inhibition) at 10uM” value turned out to be 25.9%.
Take `Cc1ccc(CNC(=O)c2ccc3c(c2)S(=O)(=O)c2ccccc2C3=O)o1`: the “hERG current change (%, negative = inhibition) at 10uM” value is -12.2%.
Consider `CCOc1ccccc1Nc1nnc(Cc2ccccc2Cl)c(=O)[nH]1`, for which the “hERG current change (%, negative = inhibition) at 10uM” value is on record as -2.71%.
For `Cc1occc1-c1nnc(-c2cc([N+](=O)[O-])cc([N+](=O)[O-])c2)o1` the value was -6.12%; for `Cc1nc(C(=O)Nc2ccc(Cl)cc2Cl)nn1-c1cc(OC(C)C)c(Cl)cc1Cl`, 9.62%.
As for `Cn1cc(Br)c(NS(=O)(=O)c2ccc(Cl)s2)n1`, the “hERG current change (%, negative = inhibition) at 10uM” value is reported as 3.37%.
For `O=C1c2cccc3cccc(c23)C(=O)N1c1cccc(O)c1` the value was 17.3%.
For the molecule `CC(=O)c1c(C)[nH]c(C(=O)OCc2nnc(-c3ccccc3)o2)c1C`, the “hERG current change (%, negative = inhibition) at 10uM” value turned out to be 5.33%.
Turning to `Cc1ccc(/C=C2\C(=O)NC(=S)N(c3ccccc3F)C2=O)s1`, the “hERG current change (%, negative = inhibition) at 10uM” value is recorded as -2.71%.
On to `CCOC(=O)c1cnc(-n2nc(C)cc2C)nc1NCc1ccc2c(c1)OCO2`, for which the “hERG current change (%, negative = inhibition) at 10uM” value was found to be 2.07%.
With `C[C@H]1CCCC(=O)CCC/C=C/c2cc(O)cc(O)c2C(=O)O1`, the “hERG current change (%, negative = inhibition) at 10uM” value came to 1.43%.
In the case of `CN(C)/C=C/C(=O)c1cnc(-c2cccc(Cl)c2)s1`, the “hERG current change (%, negative = inhibition) at 10uM” value is recorded as 5.97%.
As for `CCCCCc1nnc(NS(C)(=O)=O)s1`, the “hERG current change (%, negative = inhibition) at 10uM” value is 2.81%.
As for `Cc1ccc(C(=O)N/C(=C/c2ccc(-c3cc(C(F)(F)F)ccc3Cl)o2)C(=O)NCc2cccnc2)cc1`, the figure is -1.72%; as for `O=C(N/N=C\c1ccc(Br)cc1)c1ccc(Cn2cccn2)o1`, -34.1%.
Take `COC(=O)Cn1c(=NC(=O)c2cc(-c3cccs3)nc3ccccc23)sc2cc(S(N)(=O)=O)ccc21`: the “hERG current change (%, negative = inhibition) at 10uM” value came to 9.14%.
As for `COc1ccc(CCN=C(N)NS(=O)(=O)c2cc(F)ccc2OC)cc1`, the figure is 12.4%; as for `CC(C)NC(=S)N1CCC(Cc2ccccc2)CC1`, -2.26%.
For `COc1ccc(CN2CCCCC2C(=O)Nc2ccc(OC)c(OCC(C)C)c2)cc1OC` (centres unmarked), the “hERG current change (%, negative = inhibition) at 10uM” value amounted to 0.345%.
As to `CCN(CC(=O)Nc1ccc2c(c1)OCCO2)C(=O)CN1C(=O)NC(C)(c2ccc(C)cc2)C1=O` (centres unmarked), the “hERG current change (%, negative = inhibition) at 10uM” value is listed as -18%.
For the molecule `O=C(Cn1nnc2c(cnn2-c2ccccc2)c1=O)N1CCN(c2ccccc2F)CC1`, the “hERG current change (%, negative = inhibition) at 10uM” value is -20.5%.
As to `CC(=O)c1ccc(S(=O)(=O)N2CCN(c3nc(-c4cccnc4)nc4ccccc34)CC2)cc1`, the “hERG current change (%, negative = inhibition) at 10uM” value is on record as -40.4%.
Consider `Cc1cccc(NC(=S)Nc2ccc3cn[nH]c3c2)c1`, for which the “hERG current change (%, negative = inhibition) at 10uM” value turned out to be 1.96%.
For `CC12c3ccccc3C(c3ccccc31)C1C(=O)N(Cc3cccnc3)C(=O)[C@H]12` (some centres unmarked) the value was -15.6%; for `Cc1ccccc1CN1CCNC(=O)C1CC(=O)NC1CCCCCCC1` (centres unmarked), -4.98%; for `Cc1ccc(C(=O)NCCN2CCNC2=O)cc1`, 12.9%.
For `O=C(NC1(C(F)(F)F)N=C2SCCN2C1=O)c1cccnc1` (centres unmarked) the value was 15.7%.
With `CCOc1ccc(C(=O)NC(=S)Nc2cccnc2)cc1`, the “hERG current change (%, negative = inhibition) at 10uM” value was 4.34%.
Take `Cc1cc(NC(=O)CC#N)n(-c2nc3ccccc3[nH]2)n1`: the “hERG current change (%, negative = inhibition) at 10uM” value is 0.562%.
On to `CC(=O)Oc1ccc2nc(CN3C(=O)c4ccc([N+](=O)[O-])cc4C3=O)oc(=O)c2c1`, for which the “hERG current change (%, negative = inhibition) at 10uM” value was 10%.
Take `O=C(OC(C(=O)NCc1ccco1)C(OC(=O)c1ccccc1)C(=O)NCc1ccco1)c1ccccc1` (centres unmarked): the “hERG current change (%, negative = inhibition) at 10uM” value is listed as -0.223%.
With `O=C(CCCN1C(=O)/C(=C/c2cccs2)SC1=S)NNC(=O)c1ccncc1`, the “hERG current change (%, negative = inhibition) at 10uM” value worked out at 10.4%.
On to `CCCc1cc(=O)[nH]c(SCC(=O)N(CC)C2CCS(=O)(=O)C2)n1` (centres unmarked), for which the “hERG current change (%, negative = inhibition) at 10uM” value was found to be 13.2%.
Take `FC(F)(F)c1nnc(-c2ccccc2)nc1Oc1ccccc1`: the “hERG current change (%, negative = inhibition) at 10uM” value is on record as 12.9%.
For `COc1ccc([N+](=O)[O-])cc1NS(=O)(=O)c1ccc(Cl)c(C(=O)Nc2sc3c(c2C#N)CCCCC3)c1` the value was 26.7%; for `O=C(NCC1OCCc2ccccc21)c1ccco1` (centres unmarked), 5.85%; for `O=C(Nc1ncccn1)c1cc(-c2cccc(Br)c2)nc2ccccc12`, -5.26%.
As for `COc1ccccc1OCc1ccc(C(=O)c2ccccc2)cc1`, the “hERG current change (%, negative = inhibition) at 10uM” value stood at 17.1%.
For the molecule `CCSc1nc(N2CCOCC2)c2ccccc2n1`, the “hERG current change (%, negative = inhibition) at 10uM” value is -28.9%.
`COc1ccc(-c2csc(N3CCN(C(=O)c4ccccc4)CC3)n2)cc1`: the “hERG current change (%, negative = inhibition) at 10uM” value was 13.1%.
On to `Cc1c(Cl)c(-c2n[nH]c(=S)n2-c2ccc(F)cc2)nn1C`, for which the “hERG current change (%, negative = inhibition) at 10uM” value amounted to 14.1%.
As for `COc1cc(CNS(=O)(=O)c2ccc3c(c2)CC(C)N3C(C)=O)cc(OC)c1OC` (centres unmarked), the figure is 18.6%; as for `CCc1ccccc1NC(=O)CSc1nc2ccccc2nc1N1CCOCC1`, -15.1%; as for `COc1ccc(NC(=S)NNC(=O)c2cccs2)cc1`, 18%.
With `CCOc1ccccc1NC(=O)c1oc2ccccc2c1NC(=O)C1CCCO1` (centres unmarked), the “hERG current change (%, negative = inhibition) at 10uM” value is recorded as -4.46%.
In the case of `O=C(CSc1nccn1-c1ncc(C(F)(F)F)cc1Cl)c1ccc(Br)cc1`, the “hERG current change (%, negative = inhibition) at 10uM” value was -14.2%.
As to `COc1ccc(NC(=O)c2cccc(-n3cnnn3)c2)cc1`, the “hERG current change (%, negative = inhibition) at 10uM” value was -6.53%.
On to `COc1ccc(-c2nnc3ccc(SCC(N)=O)nn23)cc1OC`, for which the “hERG current change (%, negative = inhibition) at 10uM” value was determined as 3.19%.
Regarding `Cc1cc(C)nc(SCc2nnc(SCC(=O)Nc3nc(-c4ccccc4)cs3)n2C)n1`, the “hERG current change (%, negative = inhibition) at 10uM” value is given as -45.4%.
With `COc1ccc2oc(-c3ccc(NC(=O)c4ccc(N5CCOCC5)c([N+](=O)[O-])c4)cc3)nc2c1`, the “hERG current change (%, negative = inhibition) at 10uM” value is reported as 17.3%.
In the case of `O=C(CCc1c[nH]c2ccccc12)NCc1ccncc1`, the “hERG current change (%, negative = inhibition) at 10uM” value was 6.68%.
For the molecule `COCCNC(=O)N1[C@H]2CC[C@@H]1C(C(=O)OC)=C(c1ccc(OC)c(OC)c1)C2`, the “hERG current change (%, negative = inhibition) at 10uM” value was determined as 12.4%.
As for `C(=C\c1ccccc1)/C=N/Nc1nc2ccccc2[nH]1`, the “hERG current change (%, negative = inhibition) at 10uM” value is reported as -6.25%.
As to `COC(=O)[C@@H]1C[C@@]2(O)[C@H](O)[C@H](O)[C@H](O)C[C@H]2N1C/C=C/c1ccccc1`, the “hERG current change (%, negative = inhibition) at 10uM” value was -4.17%.
As for `COc1ccc2c3c(c(=O)oc2c1OCC(=O)O)CCCC3`, the figure is 20.8%; as for `COc1ccc(Cl)cc1NC(=O)CCNC(=O)OCc1ccccc1`, -12.1%.
On to `Cc1ccc2c(c1)N(C(=O)CCC(=O)N1CCOCC1)CC(C)O2` (centres unmarked), for which the “hERG current change (%, negative = inhibition) at 10uM” value is reported as 14.3%.
Regarding `Cc1ccc(S(=O)(=O)NCC(=O)NCC(=O)OC(C(=O)NC(N)=O)C(C)C)cc1C` (centres unmarked), the “hERG current change (%, negative = inhibition) at 10uM” value turned out to be 8.86%.
`CCN(CC)C(=O)c1ccc2c3c(cccc13)C(=O)N(CCc1ccc(OC)c(OC)c1)C2=O`: the “hERG current change (%, negative = inhibition) at 10uM” value was -25.6%.

The values are drawn from paper PMC4336329 (PLoS ONE, 2015).
